Consider four molecules from the supplement of paper PMC11741623.

Some of the results follow. Interaction screen of human proteins with wild-type SARS-CoV-2 proteins by split-DHFR complementation in yeast, 1 µg/mL methotrexate. Value = fitness of the pair (three or more lineages) minus that of the viral protein without a human partner, on a scale set by negative (0) and fused positive (1) controls, mean of up to three cultures; higher = more likely to interact. Active = false discovery rate below 0.05 (one-sided t-test) in at least one culture. Nearly all pairs are not hits, and differences among them are mostly noise (correlation between cultures about 0.3); most hits were seen in one culture only. Human sequences are the Swiss-Prot entries looked up by gene name; the clone may be another isoform. NSP2 values were corrected by the authors for a growth advantage. Listed are human proteins with a hit and a random twelfth of the others.

First the molecules themselves.
B1: UTS2, O95399 (protein)
chain: MYKLASCCLLFIGFLNPLLSLPLLDSREISFQLSAPHEDARLTPEELERASLLQILPEMLGAERGDILRKADSSTNIFNPRGNLRKFQDFSGQDPNILLSHLLARIWKPYKKRETPDCFWKYCV
B2: CCR1, P32246 (protein)
chain: METPNTTEDYDTTTEFDYGDATPCQKVNERAFGAQLLPPLYSLVFVIGLVGNILVVLVLVQYKRLKNMTSIYLLNLAISDLLFLFTLPFWIDYKLKDDWVFGDAMCKILSGFYYTGLYSEIFFIILLTIDRYLAIVHAVFALRARTVTFGVITSIIIWALAILASMPGLYFSKTQWEFTHHTCSLHFPHESLREWKLFQALKLNLFGLVLPLLVMIICYTGIIKILLRRPNEKKSKAVRLIFVIMIIFFLFWTPYNLTILISVFQDFLFTHECEQSRHLDLAVQVTEVIAYTHCCVNPVIYAFVGERFRKYLRQLFHRRVAVHLVKWLPFLSVDRLERVSSTSPSTGEHELSAGF
B3: CCL26, Q9Y258 (protein)
chain: MMGLSLASAVLLASLLSLHLGTATRGSDISKTCCFQYSHKPLPWTWVRSYEFTSNSCSQRAVIFTTKRGKKVCTHPRKKWVQKYISLLKTPKQL
B4: TRAPPC12, Q8WVT3 (protein)
chain: MEDAGGGEETPAPEAPHPPQLAPPEEQGLLFQEETIDLGGDEFGSEENETASEGSSPLADKLNEHMMESVLISDSPNSEGDAGDLGRVRDEAEPGGEGDPGPEPAGTPSPSGEADGDCAPEDAAPSSGGAPRQDAAREVPGSEAARPEQEPPVAEPVPVCTIFSQRAPPASGDGFEPQMVKSPSFGGASEASARTPPQVVQPSPSLSTFFGDTAASHSLASDFFDSFTTSAFISVSNPGAGSPAPASPPPLAVPGTEGRPEPVAMRGPQAAAPPASPEPFAHIQAVFAGSDDPFATALSMSEMDRRNDAWLPGEATRGVLRAVATQQRGAVFVDKENLTMPGLRFDNIQGDAVKDLMLRFLGEKAAAKRQVLNADSVEQSFVGLKQLISCRNWRAAVDLCGRLLTAHGQGYGKSGLLTSHTTDSLQLWFVRLALLVKLGLFQNAEMEFEPFGNLDQPDLYYEYYPHVYPGRRGSMVPFSMRILHAELQQYLGNPQESLDRLHKVKTVCSKILANLEQGLAEDGGMSSVTQEGRQASIRLWRSRLGRVMYSMANCLLLMKDYVLAVEAYHSVIKYYPEQEPQLLSGIGRISLQIGDIKTAEKYFQDVEKVTQKLDGLQGKIMVLMNSAFLHLGQNNFAEAHRFFTEILRMDPRNAVANNNAAVCLLYLGKLKDSLRQLEAMVQQDPRHYLHESVLFNLTTMYELESSRSMQKKQALLEAVAGKEGDSFNTQCLKLA

The first assay has as its target SARS-CoV-2 M. The assay can be described thus: yeast fitness gain over the viral ORF with no human partner (scaled fitness); higher = more likely to interact. The procedure:
(§1)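 Split mouse DHFR complementation in pooled diploid yeast: human ORFeome clones carry one fragment and viral ORFs the other; barcoded lineages compete in 1 µg/mL methotrexate and fitness is read by barcode sequencing in up to three cultures.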
On to B1, for which the yeast fitness gain was inactive: -0.106.

Regarding B2, the yeast fitness gain is inactive: 0.0412.

B3: the yeast fitness gain is inactive: 0.173.

Turning to B4, the yeast fitness gain is inactive: -0.0999.

In a further assay the target is SARS-CoV-2 NSP10. The assay is described as above. The procedure: as §1
Take B1: the yeast fitness gain is inactive: 0.0192.

With B2, the yeast fitness gain was inactive: -0.0527.

With B3, the yeast fitness gain is inactive: 0.0714.

As to B4, the yeast fitness gain is inactive: -0.0285.

Another assay deals with SARS-CoV-2 NSP12. The description is as above. The procedure: as §1
Consider B1, for which the yeast fitness gain was inactive: 0.127.

As to B2, the yeast fitness gain is inactive: 0.0494.

Consider B3, for which the yeast fitness gain is inactive: 0.0073.

As for B4, the yeast fitness gain was inactive: 0.0737.

In the next assay the target is SARS-CoV-2 NSP13. Described as above. The procedure:
as §1
With B1, the yeast fitness gain is inactive: 0.02.

For B2, the yeast fitness gain is inactive: 0.0161.

Take B3: the yeast fitness gain was inactive: -0.0681.

In the case of B4, the yeast fitness gain is inactive: 0.0455.

Another assay deals with SARS-CoV-2 NSP14. Described as above. The procedure: as §1
For B1, the yeast fitness gain was inactive: -0.0208.

Consider B2, for which the yeast fitness gain was inactive: 0.0944.

The target of another assay is SARS-CoV-2 NSP15. Described as above. The procedure: as §1
Turning to B1, the yeast fitness gain is inactive: 0.0666.

For B2, the yeast fitness gain was inactive: -0.0387.

Take B4: the yeast fitness gain is inactive: 0.038.

The target in the next assay is SARS-CoV-2 NSP2. Described as above. The procedure: as §1
Regarding B1, the yeast fitness gain is inactive: -0.0472.

Regarding B2, the yeast fitness gain was inactive: -0.11.

For the molecule B3, the yeast fitness gain was inactive: 0.0346.

As for B4, the yeast fitness gain was inactive: -0.0896.

For the next assay, the target named is SARS-CoV-2 NSP4. The assay is described as above. The procedure:
as §1
In the case of B1, the yeast fitness gain is inactive: -0.0795.

B2: the yeast fitness gain was inactive: 0.149.

The target in another assay is SARS-CoV-2 NSP5. The description is as above. The procedure: as §1
Consider B1, for which the yeast fitness gain is inactive: 0.0473.

B2: the yeast fitness gain was inactive: -0.0085.

In the case of B3, the yeast fitness gain is inactive: -0.0584.

As for B4, the yeast fitness gain is inactive: 0.0758.

The target of another assay is SARS-CoV-2 NSP6. The description is as above. The procedure:
as §1
Turning to B1, the yeast fitness gain is inactive: 0.0951.

As to B2, the yeast fitness gain was inactive: 0.0369.

On to B3, for which the yeast fitness gain is inactive: -0.000613.

B4: the yeast fitness gain was inactive: -0.00758.

For a further assay, the target named is SARS-CoV-2 NSP7. The assay is described as above. The procedure:
as §1
On to B1, for which the yeast fitness gain was inactive: 0.0566.

In the case of B2, the yeast fitness gain was inactive: 0.111.

With B3, the yeast fitness gain is inactive: -0.0454.

For the molecule B4, the yeast fitness gain was inactive: 0.0269.

A further assay addresses SARS-CoV-2 NSP8. Described as above. The procedure:
as §1
With B1, the yeast fitness gain is inactive: -0.091.

Consider B2, for which the yeast fitness gain is inactive: -0.0356.

Consider B3, for which the yeast fitness gain was inactive: -0.0214.

Turning to B4, the yeast fitness gain is inactive: -0.14.

In a further assay the target is SARS-CoV-2 ORF10. The assay is described as above. The procedure: as §1
With B1, the yeast fitness gain is inactive: 0.0112.

Take B2: the yeast fitness gain was inactive: 0.00265.

For B3, the yeast fitness gain is inactive: 0.0435.

Turning to B4, the yeast fitness gain was inactive: 0.049.

In another assay the target is SARS-CoV-2 ORF3B. The assay is described as above. The procedure:
as §1
With B1, the yeast fitness gain is inactive: 0.00441.

Regarding B2, the yeast fitness gain was inactive: 0.0829.

Turning to B3, the yeast fitness gain was inactive: -0.0935.

For the molecule B4, the yeast fitness gain was inactive: -0.0547.

Another assay deals with SARS-CoV-2 ORF6. Described as above. The procedure: as §1
Regarding B1, the yeast fitness gain was inactive: -0.0382.

As to B2, the yeast fitness gain is inactive: 0.0475.

With B3, the yeast fitness gain is inactive: 0.00459.

With B4, the yeast fitness gain is inactive: -0.00286.

A further assay has as its target SARS-CoV-2 ORF7A. The description is as above. The procedure:
as §1
Turning to B1, the yeast fitness gain is inactive: 0.0378.

In the case of B2, the yeast fitness gain was inactive: 0.0477.

On to B3, for which the yeast fitness gain is inactive: -0.0731.

As for B4, the yeast fitness gain is inactive: -0.132.

Another assay concerns the target SARS-CoV-2 ORF7B. The description is as above. The procedure: as §1
Take B1: the yeast fitness gain is inactive: -0.000801.

For B2, the yeast fitness gain was inactive: 0.0652.

In the case of B3, the yeast fitness gain was inactive: 0.0474.

In the case of B4, the yeast fitness gain is inactive: 0.0291.

Another assay addresses SARS-CoV-2 ORF8. Described as above. The procedure: as §1
With B1, the yeast fitness gain was inactive: -0.0863.

For the molecule B2, the yeast fitness gain is inactive: 0.0417.

For the molecule B3, the yeast fitness gain is inactive: -0.0453.

Take B4: the yeast fitness gain was inactive: 0.0132.

The target of a further assay is SARS-CoV-2 ORF9B. The assay is described as above. The procedure:
as §1
For B1, the yeast fitness gain was inactive: 0.00572.

Consider B2, for which the yeast fitness gain was inactive: 0.0392.

With B3, the yeast fitness gain was inactive: 0.0192.

With B4, the yeast fitness gain was inactive: -0.109.

The next assay addresses SARS-CoV-2 ORF9Bwu (the 73-codon ORF). The description is as above. The procedure:
as §1
For the molecule B1, the yeast fitness gain was inactive: -0.0462.

In the case of B2, the yeast fitness gain is inactive: 0.0548.

Take B3: the yeast fitness gain is inactive: -0.147.

Take B4: the yeast fitness gain is inactive: 0.104.

The next assay concerns the target SARS-CoV-2 S. Described as above. The procedure: as §1
As for B1, the yeast fitness gain is inactive: 0.0547.

Consider B2, for which the yeast fitness gain is inactive: 0.0326.

In the case of B3, the yeast fitness gain was inactive: -0.0854.

Take B4: the yeast fitness gain was inactive: 0.0326.

The target of a further assay is SARS-CoV-2 NSP1. The description is as above. The procedure: as §1
Consider B2, for which the yeast fitness gain was inactive: 0.0262.

Consider B4, for which the yeast fitness gain is inactive: 0.00289.

In a further assay the target is SARS-CoV-2 NSP16. The assay is described as above. The procedure:
as §1
Take B2: the yeast fitness gain is inactive: 0.0541.

For the molecule B3, the yeast fitness gain is inactive: 0.0499.

For B4, the yeast fitness gain was inactive: -0.0747.

A further assay addresses SARS-CoV-2 NSP9. The description is as above. The procedure:
as §1
For B2, the yeast fitness gain was inactive: -0.00873.

On to B3, for which the yeast fitness gain is inactive: 0.0261.

For another assay, the target named is SARS-CoV-2 ORF3A. The description is as above. The procedure:
as §1
Take B2: the yeast fitness gain was inactive: 0.0272.

The next assay deals with SARS-CoV-2 N. Described as above. The procedure:
as §1
As for B4, the yeast fitness gain is inactive: 0.02.
